Values joined by “and” are separate entries in the source; they are usually repeats but may differ in a detail not shown here. Equal entries are not always repeated. The whole screen tested about 110,000 compounds, of which about 230 (0.21%) showed an effect of 50% or more. Some of the results follow.
What follows are molecules tested against DPAP1 (Plasmodium falciparum, UniProt Q8IIJ9) (assay: primary screen, percent inhibition; read by cleavage of a fluorogenic dipeptide substrate; higher = more effect of the substance).
Sequence of DPAP1 (Q8IIJ9 whole entry, looked up): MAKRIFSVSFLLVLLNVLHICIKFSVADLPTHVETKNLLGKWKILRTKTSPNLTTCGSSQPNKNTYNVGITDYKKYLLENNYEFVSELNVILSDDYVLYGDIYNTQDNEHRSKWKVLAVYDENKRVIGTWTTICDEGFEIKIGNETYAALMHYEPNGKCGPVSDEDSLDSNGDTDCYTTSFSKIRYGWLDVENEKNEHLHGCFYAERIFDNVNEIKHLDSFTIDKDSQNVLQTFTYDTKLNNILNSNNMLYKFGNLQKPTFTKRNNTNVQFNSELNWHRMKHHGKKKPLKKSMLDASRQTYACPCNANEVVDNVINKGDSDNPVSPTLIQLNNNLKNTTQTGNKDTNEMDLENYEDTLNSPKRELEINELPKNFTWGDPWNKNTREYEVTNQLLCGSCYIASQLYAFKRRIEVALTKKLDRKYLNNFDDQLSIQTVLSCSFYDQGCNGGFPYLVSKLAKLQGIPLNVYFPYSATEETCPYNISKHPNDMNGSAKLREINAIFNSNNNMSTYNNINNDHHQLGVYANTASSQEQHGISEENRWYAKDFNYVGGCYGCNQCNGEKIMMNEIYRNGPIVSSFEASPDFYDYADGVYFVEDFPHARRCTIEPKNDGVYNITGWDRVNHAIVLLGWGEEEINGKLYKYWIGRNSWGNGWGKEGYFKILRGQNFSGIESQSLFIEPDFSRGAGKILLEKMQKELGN
Parameters: species or system P. falciparum D10 trophozoite lysates; single well
Cc1ccc(-n2ncc3c(NCCCO)ncnc32)cc1Cl was tested, and the “% Inhibition @ 10 uM” value was -6.68%. In the case of Cc1cccc(NC(=O)c2ccc(Cl)c(Cl)c2)n1, the “% Inhibition @ 10 uM” value is reported as -2.09%. Cc1oc2ncn3nc(C(C)Oc4cccc5ccccc45)nc3c2c1C (centres unmarked) was tested, and the “% Inhibition @ 10 uM” value was -3.91%. C=C(C)Cn1c(-c2ccc(OC)c(OC)c2)nc2ccccc21 was tested, and the “% Inhibition @ 10 uM” value was -1.81%. With CC1CCC(NCc2c(C(=O)O)n(Cc3ccc(F)cc3)c3ccccc23)CC1 (centres unmarked) the “% Inhibition @ 10 uM” value was 5.09%. For CC1=C(C(=O)Nc2cc(Cl)ccc2C)C(c2ccc(N(C)C)cc2)NC(=O)N1 (centres unmarked), the “% Inhibition @ 10 uM” value was 5.85%. In the case of Cc1ccc(CN(Cc2ccco2)C(=S)NCC(=O)N2CCC3(CC2)OCCO3)cc1, the “% Inhibition @ 10 uM” value is reported as -3.94%. For COc1ccc(NC(=O)C2=C(C)NC(=O)NC2c2ccc(N(C)C)cc2)cc1 (centres unmarked), the “% Inhibition @ 10 uM” value was -2.18%. With CCS(=O)(=O)Nc1ccc(C(=O)c2ccccc2)cc1 the “% Inhibition @ 10 uM” value was -2.65%. In the case of COC(=O)c1ccc(/C=c2\sc3nc(-c4ccc(C)cc4)nn3c2=O)cc1, the “% Inhibition @ 10 uM” value is reported as -5.63%. For Cc1ccc(Sc2nnc3c(=O)n(C)c(=O)n(C)c3n2)cc1, the “% Inhibition @ 10 uM” value was -1.15%. With COc1ccc2c(CNCCc3ccccc3OC)c(C(=O)O)n(Cc3ccccc3C)c2c1 the “% Inhibition @ 10 uM” value was -2.56%. In the case of O=c1c(Oc2ccc(Cl)cc2Cl)c(C(F)(F)F)oc2cc(O)ccc12, the “% Inhibition @ 10 uM” value is reported as -6.83%. In the case of O=C(O)Cn1cnc(-c2ccc(F)cc2)c1, the “% Inhibition @ 10 uM” value is reported as -1.82%. CSc1ncc(Cl)c(C(=O)Nc2nnc(C(C)C)s2)n1 was tested, and the “% Inhibition @ 10 uM” value was 6.76%. In the case of CC(C)Oc1ccc(C(=O)N2CCc3ccccc32)cc1, the “% Inhibition @ 10 uM” value is reported as -1.12%. With COc1cccc(C(=O)NC2(C(F)(F)F)NC(=O)N(C)C2=O)c1 (centres unmarked) the “% Inhibition @ 10 uM” value was 3.21%. Cc1ccc(C(=O)Nc2ccccc2C(N)=O)cc1Br was tested, and the “% Inhibition @ 10 uM” value was -1.51%. For COc1ccccc1CNCc1c(C(=O)O)n(Cc2ccccc2)c2ccccc12, the “% Inhibition @ 10 uM” value was 5.09%. CCn1c(C)cc(/C=C2\NC(=O)N(CC(=O)Nc3ccc(Cl)cc3)C2=O)c1C was tested, and the “% Inhibition @ 10 uM” value was 5.31%. With O=C(C1CCCO1)N1N=C(c2c(O)nc3ccc(Cl)cc3c2-c2ccccc2)CC1c1ccco1 (centres unmarked) the “% Inhibition @ 10 uM” value was -2.77%. In the case of O=C(NC(C(=O)c1ccccc1)N1CCCC1)c1ccco1 (centres unmarked), the “% Inhibition @ 10 uM” value is reported as -0.891%. For Cc1oc2c(cc(O)c3ccccc32)c1C(=O)O, the “% Inhibition @ 10 uM” value was 1.91%. O=C(c1cc2n(n1)C(C(F)(F)F)CC(c1ccc(F)cc1)N2)N1CCCC1 (centres unmarked) was tested, and the “% Inhibition @ 10 uM” value was 1.15%. CCOC(=O)N1CCN(c2c(NCCN3CCCCC3CC)c(=O)c2=O)CC1 (centres unmarked) was tested, and the “% Inhibition @ 10 uM” value was -11%. In the case of Cc1cccc(N(CC(=O)NCC2CCCO2)S(C)(=O)=O)c1C (centres unmarked), the “% Inhibition @ 10 uM” value is reported as 1.64%. Cc1sc(C)c(-c2ccccc2)c1C(=O)O was tested, and the “% Inhibition @ 10 uM” value was -4.96%. CCCOc1ccc(N2CC(C(=O)Nc3cccc(OCC)c3)CC2=O)cc1 (centres unmarked) was tested, and the “% Inhibition @ 10 uM” value was 4.31%. With COc1cc(NC(=O)Cn2nc(C(F)(F)F)cc2C2CC2)cc(OC)c1OC the “% Inhibition @ 10 uM” value was 1.17%. With CNc1c(NC(=O)c2cc(OC)ccc2Br)c(=O)oc2ccccc12 the “% Inhibition @ 10 uM” value was 4.95%. Cc1ccccc1C(=O)Nc1sc2c(c1C(N)=O)CCCC2 was tested, and the “% Inhibition @ 10 uM” value was -0.622%. For COC(=O)c1ccc(NC(=O)c2ccccc2Br)cc1, the “% Inhibition @ 10 uM” value was 0.912%. For Cc1ccc(Cn2ncc3c(N4CCCC4)ncnc32)cc1, the “% Inhibition @ 10 uM” value was -8.42%. FC(F)(F)C(Oc1nc(OC(C(F)(F)F)C(F)(F)F)nc(N2CCOCC2)n1)C(F)(F)F was tested, and the “% Inhibition @ 10 uM” value was 0.587%. Cc1ccc(CCNC(=O)CCCc2cn(C)c3ccccc23)cc1 was tested, and the “% Inhibition @ 10 uM” value was 2.05%. Cc1ccc(C(=O)N/C(=C\c2cccs2)C(=O)N2CCOCC2)cc1C was tested, and the “% Inhibition @ 10 uM” value was -2.78%. In the case of CN(Cc1ccccc1)S(=O)(=O)c1ccc(NC(=O)Nc2ccccc2)cc1, the “% Inhibition @ 10 uM” value is reported as -2.66%. In the case of O=C(NCCc1ccc(Cl)cc1)c1nc(-c2ccc(-n3cccc3)cc2)no1, the “% Inhibition @ 10 uM” value is reported as -2.05%. For COC(=O)[C@@H]1COC(C(O)[C@H](CCc2ccccc2)NC(=O)CCC2CCCCC2)=N1 (some centres unmarked), the “% Inhibition @ 10 uM” value was 4.33%. With COc1ccc(-n2c(N)c(C#N)c3nc4ccccc4nc32)cc1 the “% Inhibition @ 10 uM” value was 3.31%. In the case of CCN1C(=O)c2ccc(C(=O)NCc3ccco3)cc2C1=O, the “% Inhibition @ 10 uM” value is reported as -2.46%. With CN(C)c1ccc(NC(=O)Nc2ccc(Cl)c(Cl)c2)cc1 the “% Inhibition @ 10 uM” value was 0.51%. With CN1CCN(CC2CC=CCC2)CC1 (centres unmarked) the “% Inhibition @ 10 uM” value was 1.62%. COc1ccc(N(CC(=O)Nc2ccccc2C(C)C)S(C)(=O)=O)cc1 was tested, and the “% Inhibition @ 10 uM” value was 17.9%. CC(C)c1ccccc1NC(=O)COc1ccc(Br)cc1 was tested, and the “% Inhibition @ 10 uM” value was -4.07%. For CC1CCN(c2ccc3nnc(CCC(=O)Nc4ccccn4)n3n2)CC1, the “% Inhibition @ 10 uM” value was -0.826%. With Oc1[nH]c2ccccc2c1/C=N/Cc1ccccc1 the “% Inhibition @ 10 uM” value was 4.74%. With C=Cc1ccc(Cn2c(C(=O)O)c(CNCCc3ccc(Cl)cc3)c3ccc(C)cc32)cc1 the “% Inhibition @ 10 uM” value was 6.57%. With COc1ccc(C(=O)O)cc1S(=O)(=O)Nc1ccccc1C the “% Inhibition @ 10 uM” value was -1.38% and 2.01%. O=C1CCCN1C(=O)c1ccc(F)cc1 was tested, and the “% Inhibition @ 10 uM” value was -5.08%.

— PMC6919601, “Identification of Plasmodium dipeptidyl aminopeptidase allosteric inhibitors by high throughput screening” (PLoS ONE, 2019)
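Note: 30 min substrate incubation versus DMSO and 10 µM JCP410 controls.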
